# Results are given in words; binding and its absence hold for the method and conditions named. For some assays here: In cells and extracts the contact can be indirect. Some entries that bind do so weakly or less than the wild type. For some assays here: Sequences can lack the tags named with a protein.
# Sequences of proteins named here, by UniProt entry; tags and fusion partners are left off.
# UniProt Q15388: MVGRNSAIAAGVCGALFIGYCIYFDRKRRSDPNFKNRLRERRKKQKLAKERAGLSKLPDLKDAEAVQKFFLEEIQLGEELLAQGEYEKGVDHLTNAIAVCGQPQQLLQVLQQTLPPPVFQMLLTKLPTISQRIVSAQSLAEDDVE
# T1: ER-SPTLC2^FLAG (SPTLC1 1-49 fused to SPTLC2 103-562, C-terminal 3xFLAG), in Flp-In T-REx 293 SPTLC2-KO cells (human) (UniProt O15269+O15270)
# T1 sequence: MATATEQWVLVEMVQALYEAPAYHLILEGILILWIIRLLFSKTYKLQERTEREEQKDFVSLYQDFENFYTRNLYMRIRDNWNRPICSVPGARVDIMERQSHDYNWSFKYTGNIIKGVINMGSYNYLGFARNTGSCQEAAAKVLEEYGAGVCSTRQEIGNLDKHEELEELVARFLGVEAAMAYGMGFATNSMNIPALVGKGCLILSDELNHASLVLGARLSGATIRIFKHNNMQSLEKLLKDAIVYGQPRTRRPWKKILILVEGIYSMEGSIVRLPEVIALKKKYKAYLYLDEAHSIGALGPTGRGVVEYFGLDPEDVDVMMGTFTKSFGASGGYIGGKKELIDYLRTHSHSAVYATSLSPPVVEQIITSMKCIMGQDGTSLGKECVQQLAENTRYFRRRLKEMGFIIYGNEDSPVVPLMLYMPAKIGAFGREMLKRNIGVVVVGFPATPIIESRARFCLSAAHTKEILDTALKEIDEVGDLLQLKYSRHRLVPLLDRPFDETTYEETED
# T2: OM-SPTLC2^FLAG (mAKAP1 1-31 + linker fused to SPTLC2 103-562, C-terminal 3xFLAG), in Flp-In T-REx 293 SPTLC2-KO cells (UniProt O15270)
# T2 sequence: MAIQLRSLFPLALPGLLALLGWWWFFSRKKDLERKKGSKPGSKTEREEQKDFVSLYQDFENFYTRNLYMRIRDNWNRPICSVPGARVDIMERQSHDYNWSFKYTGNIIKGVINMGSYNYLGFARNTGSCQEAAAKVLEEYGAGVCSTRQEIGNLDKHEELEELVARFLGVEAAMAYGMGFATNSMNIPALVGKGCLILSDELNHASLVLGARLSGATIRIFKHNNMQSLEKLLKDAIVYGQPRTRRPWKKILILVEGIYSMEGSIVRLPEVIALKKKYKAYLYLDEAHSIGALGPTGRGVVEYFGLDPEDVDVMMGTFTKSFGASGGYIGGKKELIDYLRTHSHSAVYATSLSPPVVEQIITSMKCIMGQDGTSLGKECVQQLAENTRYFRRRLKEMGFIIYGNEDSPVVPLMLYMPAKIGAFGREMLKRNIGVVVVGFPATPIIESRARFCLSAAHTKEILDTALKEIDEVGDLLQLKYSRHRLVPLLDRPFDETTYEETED
# T3: SPTLC2^FLAG (WT-SPTLC2 with C-terminal 3xFLAG), in Flp-In T-REx 293 SPTLC2-KO cells (human) (UniProt O15270)
# T3 sequence: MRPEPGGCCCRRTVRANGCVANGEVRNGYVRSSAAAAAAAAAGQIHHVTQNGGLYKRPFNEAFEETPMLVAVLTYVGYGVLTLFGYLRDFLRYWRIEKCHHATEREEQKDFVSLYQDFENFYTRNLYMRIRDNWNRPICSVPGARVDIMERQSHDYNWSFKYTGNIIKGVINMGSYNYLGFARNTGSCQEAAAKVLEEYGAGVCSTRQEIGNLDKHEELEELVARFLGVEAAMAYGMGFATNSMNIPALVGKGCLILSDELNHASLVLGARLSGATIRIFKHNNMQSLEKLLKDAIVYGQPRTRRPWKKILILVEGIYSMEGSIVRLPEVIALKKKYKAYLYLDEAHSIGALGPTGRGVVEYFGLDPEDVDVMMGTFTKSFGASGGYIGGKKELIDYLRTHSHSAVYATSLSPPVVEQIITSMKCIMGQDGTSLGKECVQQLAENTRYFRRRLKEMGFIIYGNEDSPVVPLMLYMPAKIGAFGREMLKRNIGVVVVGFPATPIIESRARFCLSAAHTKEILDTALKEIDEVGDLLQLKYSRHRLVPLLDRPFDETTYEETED
# T4: SPTLC2, endogenous in mouse liver (mouse (endogenous in liver)) (UniProt P97363)
# T4 sequence: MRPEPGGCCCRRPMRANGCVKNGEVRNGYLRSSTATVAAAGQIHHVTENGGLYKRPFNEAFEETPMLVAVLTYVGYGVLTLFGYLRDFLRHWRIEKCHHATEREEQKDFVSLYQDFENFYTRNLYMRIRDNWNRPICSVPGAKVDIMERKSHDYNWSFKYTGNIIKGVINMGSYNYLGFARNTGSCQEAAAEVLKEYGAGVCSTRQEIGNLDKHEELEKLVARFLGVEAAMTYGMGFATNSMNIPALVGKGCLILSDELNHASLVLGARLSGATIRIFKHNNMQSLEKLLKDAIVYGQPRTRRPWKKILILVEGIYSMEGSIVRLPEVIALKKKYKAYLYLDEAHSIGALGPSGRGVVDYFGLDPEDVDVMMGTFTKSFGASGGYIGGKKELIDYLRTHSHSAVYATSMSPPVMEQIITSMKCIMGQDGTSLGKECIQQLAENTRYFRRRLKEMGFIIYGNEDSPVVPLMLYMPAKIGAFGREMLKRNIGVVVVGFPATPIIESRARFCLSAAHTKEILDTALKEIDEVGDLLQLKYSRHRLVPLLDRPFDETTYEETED
# T5: SPTLC2, endogenous in Flp-In T-REx 293 cells (human (endogenous in Flp-In T-REx 293)) (UniProt O15270)
# T5 sequence: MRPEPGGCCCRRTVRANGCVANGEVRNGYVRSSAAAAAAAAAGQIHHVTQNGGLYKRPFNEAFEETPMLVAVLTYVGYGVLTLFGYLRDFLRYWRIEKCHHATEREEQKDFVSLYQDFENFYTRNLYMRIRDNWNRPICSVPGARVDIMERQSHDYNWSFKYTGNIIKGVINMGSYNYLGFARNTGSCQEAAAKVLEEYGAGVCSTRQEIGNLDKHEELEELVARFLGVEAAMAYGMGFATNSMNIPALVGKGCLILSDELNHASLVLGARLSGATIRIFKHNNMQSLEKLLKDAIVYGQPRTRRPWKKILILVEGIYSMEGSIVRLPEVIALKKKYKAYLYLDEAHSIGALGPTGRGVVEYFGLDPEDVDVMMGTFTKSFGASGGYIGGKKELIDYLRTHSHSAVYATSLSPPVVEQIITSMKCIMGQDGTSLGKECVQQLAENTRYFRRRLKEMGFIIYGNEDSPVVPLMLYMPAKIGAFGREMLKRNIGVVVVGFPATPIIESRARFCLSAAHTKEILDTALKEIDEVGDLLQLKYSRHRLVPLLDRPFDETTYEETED
# Tests used:
# [1] = target: T1, ER-SPTLC2^FLAG (SPTLC1 1-49 fused to SPTLC2 103-562, C-terminal 3xFLAG), in Flp-In T-REx 293 SPTLC2-KO cells (human); assay: co-IP; heavy membrane fractions of Flp-In T-REx 293 SPTLC2-KO cells with or without WT-, ER- or OM-SPTLC2^FLAG, solubilised with digitonin, FLAG-immunoprecipitation on anti-FLAG M2 beads, eluted with Laemmli buffer, immunoblotting
# [2] = target: T2, OM-SPTLC2^FLAG (mAKAP1 1-31 + linker fused to SPTLC2 103-562, C-terminal 3xFLAG), in Flp-In T-REx 293 SPTLC2-KO cells; assay: as above
# [3] = target: T3, SPTLC2^FLAG (WT-SPTLC2 with C-terminal 3xFLAG), in Flp-In T-REx 293 SPTLC2-KO cells (human); assay: as above
# [4] = target: T4, SPTLC2, endogenous in mouse liver (mouse (endogenous in liver)); assay: native gel or EMSA; blue native PAGE of mouse liver light and heavy membrane fractions; immunoblotted with anti-SPTLC1 and anti-SPTLC2
# [5] = target: T5, SPTLC2, endogenous in Flp-In T-REx 293 cells (human (endogenous in Flp-In T-REx 293)); assay: native gel or EMSA; blue native PAGE (4-13% gradient gel) of digitonin-solubilised heavy membrane fractions from Flp-In T-REx 293 control, SPTLC1-KO, SPTLC2-KO and rescue cells; immunoblotted with anti-SPTLC1 and anti-SPTLC2
# [6] = target: T3, SPTLC2^FLAG (WT-SPTLC2 with C-terminal 3xFLAG), in Flp-In T-REx 293 SPTLC2-KO cells (human); assay: as above
binding [1],binding [2],binding [3],binding [4],binding [5],binding [6],Molecule
no binding,binds,binds,–,–,–,TOMM20 (from UniProt Q15388 1-145)
no binding,binds,binds,–,–,–,"TOMM40 (protein, UniProt O96008 1-361) MGNVLAASSPPAGPPPPPAPALVGLPPPPPSPPGFTLPPLGGSLGAGTSTSRSSERTPGAATASASGAAEDGACGCLPNPGTFEECHRKCKELFPIQMEGVKLTVNKGLSNHFQVNHTVALSTIGESNYHFGVTYVGTKQLSPTEAFPVLVGDMDNSGSLNAQVIHQLGPGLRSKMAIQTQQSKFVNWQVDGEYRGSDFTAAVTLGNPDVLVGSGILVAHYLQSITPCLALGGELVYHRRPGEEGTVMSLAGKYTLNNWLATVTLGQAGMHATYYHKASDQLQVGVEFEASTRMQDTSVSFGYQLDLPKANLLFKGSVDSNWIVGATLEKKLPPLPLTLALGAFLNHRKNKFQCGFGLTIG"
–,–,binds,–,–,–,"GK (protein, UniProt P32189 1-559) MAASKKAVLGPLVGAVDQGTSSTRFLVFNSKTAELLSHHQVEIKQEFPREGWVEQDPKEILHSVYECIEKTCEKLGQLNIDISNIKAIGVSNQRETTVVWDKITGEPLYNAVVWLDLRTQSTVESLSKRIPGNNNFVKSKTGLPLSTYFSAVKLRWLLDNVRKVQKAVEEKRALFGTIDSWLIWSLTGGVNGGVHCTDVTNASRTMLFNIHSLEWDKQLCEFFGIPMEILPNVRSSSEIYGLMKISHSVKAGALEGVPISGCLGDQSAALVGQMCFQIGQAKNTYGTGCFLLCNTGHKCVFSDHGLLTTVAYKLGRDKPVYYALEGSVAIAGAVIRWLRDNLGIIKTSEEIEKLAKEVGTSYGCYFVPAFSGLYAPYWEPSARGIICGLTQFTNKCHIAFAALEAVCFQTREILDAMNRDCGIPLSHLQVDGGMTSNKILMQLQADILYIPVVKPSMPETTALGAAMAAGAAEGVGVWSLEPEDLSAVTMERFEPQINAEESEIRYSTWKKAVMKSMGWVTTQSPESGDPSIFCSLPLGFFIVSSMVMLIGARYISGIP"
–,–,–,binds,–,–,"SPTLC1, endogenous in mouse liver (enzyme, UniProt O35704 1-473) MATVAEQWVLVEMVQALYEAPAYHLILEGILILWIIRLVFSKTYKLQERSDLTAKEKEELIEEWQPEPLVPPVSKNHPALNYNIVSGPPTHNIVVNGKECVNFASFNFLGLLANPRVKATAFSSLKKYGVGTCGPRGFYGTFDVHLDLEERLAKFMKTEEAIIYSYGFSTIASAIPAYSKRGDIIFVDSAACFAIQKGLQASRSDIKLFKHNDVADLERLLKEQEIEDQKNPRKARVTRRFIVVEGLYMNTGTICPLPELVKLKYKYKARIFLEESLSFGVLGEHGRGVTEHYGISIDDIDLISANMENALASVGGFCCGRSFVVDHQRLSGQGYCFSASLPPLLAAAAIEALNIMEENPDIFAVLKKKCQNIHKSLQGVSGLKVVGESLSPALHLQLEESTGSREKDVKLLQAIVDQCMDKGIALTQARYLDKEEKCLPPPSIRVVVTVEQTEEELQRAASTIREAAQAVLL"
binds,binds,binds,–,binds,binds,"SPTLC1, endogenous in Flp-In T-REx 293 cells (enzyme, UniProt O15269 1-473) MATATEQWVLVEMVQALYEAPAYHLILEGILILWIIRLLFSKTYKLQERSDLTVKEKEELIEEWQPEPLVPPVPKDHPALNYNIVSGPPSHKTVVNGKECINFASFNFLGLLDNPRVKAAALASLKKYGVGTCGPRGFYGTFDVHLDLEDRLAKFMKTEEAIIYSYGFATIASAIPAYSKRGDIVFVDRAACFAIQKGLQASRSDIKLFKHNDMADLERLLKEQEIEDQKNPRKARVTRRFIVVEGLYMNTGTICPLPELVKLKYKYKARIFLEESLSFGVLGEHGRGVTEHYGINIDDIDLISANMENALASIGGFCCGRSFVIDHQRLSGQGYCFSASLPPLLAAAAIEALNIMEENPGIFAVLKEKCGQIHKALQGISGLKVVGESLSPAFHLQLEESTGSREQDVRLLQEIVDQCMNRSIALTQARYLEKEEKCLPPPSIRVVVTVEQTEEELERAASTIKEVAQAVLL"
–,–,–,–,binds,–,"SPTLC1, untagged, re-expressed in Flp-In T-REx 293 SPTLC1-KO cells (enzyme, UniProt O15269 1-473) MATATEQWVLVEMVQALYEAPAYHLILEGILILWIIRLLFSKTYKLQERSDLTVKEKEELIEEWQPEPLVPPVPKDHPALNYNIVSGPPSHKTVVNGKECINFASFNFLGLLDNPRVKAAALASLKKYGVGTCGPRGFYGTFDVHLDLEDRLAKFMKTEEAIIYSYGFATIASAIPAYSKRGDIVFVDRAACFAIQKGLQASRSDIKLFKHNDMADLERLLKEQEIEDQKNPRKARVTRRFIVVEGLYMNTGTICPLPELVKLKYKYKARIFLEESLSFGVLGEHGRGVTEHYGINIDDIDLISANMENALASIGGFCCGRSFVIDHQRLSGQGYCFSASLPPLLAAAAIEALNIMEENPGIFAVLKEKCGQIHKALQGISGLKVVGESLSPAFHLQLEESTGSREQDVRLLQEIVDQCMNRSIALTQARYLEKEEKCLPPPSIRVVVTVEQTEEELERAASTIKEVAQAVLL"

# From article PMC8605320
